± gives the standard deviation of the averaged measurements. Laboratory Escherichia coli strains with one amino-acid change in an essential protein, pooled on minimal glucose agar with carbenicillin or gentamicin at twice the control MIC (plus kanamycin and chloramphenicol for the plasmids), 48 h. Fold change of barcode share against drug-free plates; higher = less susceptible. Active = above 20 in both replicates (the paper's putatively resistant). '<' = one read or none on drug, '>' = one read or none on a drug-free plate. Shares are relative, so most strains fall below 1 when a few take over. Listed are strains with at least 15 reads on both drug-free plates, and hits; most hits rest on fewer reference reads. Replicate rank correlation about 0.5. Edits are read from barcodes.
Target: Escherichia coli (laboratory strain)
Test: barcode share on antibiotic plates over drug-free plates; higher = less susceptible
Protocol: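 A pool of E. coli strains, each edited to carry one amino-acid change in an essential protein, was grown for 48 h on minimal glucose agar with or without antibiotic; strain barcodes were sequenced; mean of two replicates.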

[1] = antibiotic: carbenicillin, 2× MIC (3.1 µg/mL)
[2] = antibiotic: gentamicin, 2× MIC (MIC 0.45 µg/mL)

Row | Protein | fold change of barcode share [1] | fold change of barcode share [2]
1 | msbA V550P (protein) MHNDKDLSTWQTFRRLWPTIAPFKAGLIVAGVALILNAASDTFMLSLLKPLLDDGFGKTDRSVLVWMPLVVIGLMILRGITSYVSSYCISWVSGKVVMTMRRRLFGHMMGMPVSFFDKQSTGTLLSRITYDSEQVASSSSGALITVVREGASIIGLFIMMFYYSWQLSIILIVLAPIVSIAIRVVSKRFRNISKNMQNTMGQVTTSAEQMLKGHKEVLIFGGQEVETKRFDKVSNRMRLQGMKMVSASSISDPIIQLIASLALAFVLYAASFPSVMDSLTAGTITVVFSSMIALMRPLKSLTNVNAQFQRGMAACQTLFTILDSEQEKDEGKRVIERATGDVEFRNVTFTYPGRDVPALRNINLKIPAGKTVALVGRSGSGKSTIASLITRFYDIDEGEILMDGHDLREYTLASLRNQVALVSQNVHLFNDTVANNIAYARTEQYSREQIEEAARMAYAMDFINKMDNGLDTVIGENGVLLSGGQRQRIAIARALLRDSPILILDEATSALDTESERAIQAALDELQKNRTSLVIAHRLSTIEKADEIVPVEDGVIVERGTHNDLLEHRGVYAQLHKMQFGQ | 1.1 ± 0.62 | –
2 | mukB L686Q (protein) MIERGKFRSLTLINWNGFFARTFDLDELVTTLSGGNGAGKSTTMAAFVTALIPDLTLLHFRNTTEAGATSGSRDKGLHGKLKAGVCYSMLDTINSRHQRVVVGVRLQQVAGRDRKVDIKPFAIQGLPMSVQPTQLVTETLNERQARVLPLNELKDKLEAMEGVQFKQFNSITDYHSLMFDLGIIARRLRSASDRSKFYRLIEASLYGGISSAITRSLRDYLLPENSGVRKAFQDMEAALRENRMTLEAIRVTQSDRDLFKHLISEATNYVAADYMRHANERRVHLDKALEFRRELHTSRQQLAAEQYKHVDMARELAEHNGAEGDLEADYQAASDHLNLVQTALRQQEKIERYEADLDELQIRLEEQNEVVAEAIERQQENEARAEAAELEVDELKSQLADYQQALDVQQTRAIQYNQAIAALNRAKELCHLPDLTADCAAEWLETFQAKELEATEKMLSLEQKMSMAQTAHSQFEQAYQLVVAINGPLARNEAWDVARELLREGVDQRHLAEQVQPLRMRLSELEQRLREQQEAERLLADFCKRQGKNFDIDELEALHQELEARIASLSDSVSNAREERMALRQEQEQLQSRIQSLMQRAPVWLAAQNSLNQLSEQCGEEFTSSQDVTEYLQQLLEREREAIVERDEVGARKNAVDEEIERLSQPGGSEDQRLNALAERFGGVLQSEIYDDVSLEDAPYFSALYGPSRHAIVVPDLSQVTEHLEGLTDCPEDLYLIEGDPQSFDDSVFSVDELEKAVVVKIADRQWRYSRFPEVPLFGRAARESRIESLHAEREVLSERFATLSFDVQKTQRLHQAFSRFIGSHLAVAFESDPEAEIRQLNSRRVELERALSNHENDNQQQRIQFEQAKEGVTALNRILPRLNLLADDSLADRVDEIRERLDEAQEAARFVQQFGNQLAKLEPIVSVLQSDPEQFEQLKEDYAYSQQMQRDARQQAFALTEVVQRRAHFSYSDSAEMLSGNSDLNEKLRERLEQAEAERTRAREALRGHAAQLSQYNQVLASLKSSYDTKKELLNDLQRELQDIGVRADSGAEERARIRRDELHAQLSNNRSRRNQLEKALTFCEAEMDNLTRKLRKLERDYFEMREQVVTAKAGWCAVMRMVKDNGVERRLHRRELAYLSADDLRSMSDKALGALRLAVADNEHLRDVLRMSEDPKRPERKIQFFVAVYQHLRERIRQDIIRTDDPVEAIEQMEIELSRLTEELTSREQKLAISSRSVANIIRKTIQREQNRIRMLNQGLQNVSFGQVNSVRLNVNVRETHAMLLDVLSEQHEQHQDLFNSNRLTFSEALAKLYQRLNPQIDMGQRTPQTIGEELLDYRNYLEMEVEVNRGSDGWLRAESGALSTGEAIGTGMSILVMVVQSWEDESRRLRGKDISPCRLLFLDEAARLDARSIATLFELCERLQMQLIIAAPENISPEKGTTYKLVRKVFQNTEHVHVVGLRGFAPQLPETLPGTDEAPSQAS | 0.379 ± 0.073 | 0.0269 ± 0.024
3 | mukB V713A (protein) MIERGKFRSLTLINWNGFFARTFDLDELVTTLSGGNGAGKSTTMAAFVTALIPDLTLLHFRNTTEAGATSGSRDKGLHGKLKAGVCYSMLDTINSRHQRVVVGVRLQQVAGRDRKVDIKPFAIQGLPMSVQPTQLVTETLNERQARVLPLNELKDKLEAMEGVQFKQFNSITDYHSLMFDLGIIARRLRSASDRSKFYRLIEASLYGGISSAITRSLRDYLLPENSGVRKAFQDMEAALRENRMTLEAIRVTQSDRDLFKHLISEATNYVAADYMRHANERRVHLDKALEFRRELHTSRQQLAAEQYKHVDMARELAEHNGAEGDLEADYQAASDHLNLVQTALRQQEKIERYEADLDELQIRLEEQNEVVAEAIERQQENEARAEAAELEVDELKSQLADYQQALDVQQTRAIQYNQAIAALNRAKELCHLPDLTADCAAEWLETFQAKELEATEKMLSLEQKMSMAQTAHSQFEQAYQLVVAINGPLARNEAWDVARELLREGVDQRHLAEQVQPLRMRLSELEQRLREQQEAERLLADFCKRQGKNFDIDELEALHQELEARIASLSDSVSNAREERMALRQEQEQLQSRIQSLMQRAPVWLAAQNSLNQLSEQCGEEFTSSQDVTEYLQQLLEREREAIVERDEVGARKNAVDEEIERLSQPGGSEDQRLNALAERFGGVLLSEIYDDVSLEDAPYFSALYGPSRHAIAVPDLSQVTEHLEGLTDCPEDLYLIEGDPQSFDDSVFSVDELEKAVVVKIADRQWRYSRFPEVPLFGRAARESRIESLHAEREVLSERFATLSFDVQKTQRLHQAFSRFIGSHLAVAFESDPEAEIRQLNSRRVELERALSNHENDNQQQRIQFEQAKEGVTALNRILPRLNLLADDSLADRVDEIRERLDEAQEAARFVQQFGNQLAKLEPIVSVLQSDPEQFEQLKEDYAYSQQMQRDARQQAFALTEVVQRRAHFSYSDSAEMLSGNSDLNEKLRERLEQAEAERTRAREALRGHAAQLSQYNQVLASLKSSYDTKKELLNDLQRELQDIGVRADSGAEERARIRRDELHAQLSNNRSRRNQLEKALTFCEAEMDNLTRKLRKLERDYFEMREQVVTAKAGWCAVMRMVKDNGVERRLHRRELAYLSADDLRSMSDKALGALRLAVADNEHLRDVLRMSEDPKRPERKIQFFVAVYQHLRERIRQDIIRTDDPVEAIEQMEIELSRLTEELTSREQKLAISSRSVANIIRKTIQREQNRIRMLNQGLQNVSFGQVNSVRLNVNVRETHAMLLDVLSEQHEQHQDLFNSNRLTFSEALAKLYQRLNPQIDMGQRTPQTIGEELLDYRNYLEMEVEVNRGSDGWLRAESGALSTGEAIGTGMSILVMVVQSWEDESRRLRGKDISPCRLLFLDEAARLDARSIATLFELCERLQMQLIIAAPENISPEKGTTYKLVRKVFQNTEHVHVVGLRGFAPQLPETLPGTDEAPSQAS | 0.308 ± 0.18 | < 0.0047
4 | mukB V713W (protein) MIERGKFRSLTLINWNGFFARTFDLDELVTTLSGGNGAGKSTTMAAFVTALIPDLTLLHFRNTTEAGATSGSRDKGLHGKLKAGVCYSMLDTINSRHQRVVVGVRLQQVAGRDRKVDIKPFAIQGLPMSVQPTQLVTETLNERQARVLPLNELKDKLEAMEGVQFKQFNSITDYHSLMFDLGIIARRLRSASDRSKFYRLIEASLYGGISSAITRSLRDYLLPENSGVRKAFQDMEAALRENRMTLEAIRVTQSDRDLFKHLISEATNYVAADYMRHANERRVHLDKALEFRRELHTSRQQLAAEQYKHVDMARELAEHNGAEGDLEADYQAASDHLNLVQTALRQQEKIERYEADLDELQIRLEEQNEVVAEAIERQQENEARAEAAELEVDELKSQLADYQQALDVQQTRAIQYNQAIAALNRAKELCHLPDLTADCAAEWLETFQAKELEATEKMLSLEQKMSMAQTAHSQFEQAYQLVVAINGPLARNEAWDVARELLREGVDQRHLAEQVQPLRMRLSELEQRLREQQEAERLLADFCKRQGKNFDIDELEALHQELEARIASLSDSVSNAREERMALRQEQEQLQSRIQSLMQRAPVWLAAQNSLNQLSEQCGEEFTSSQDVTEYLQQLLEREREAIVERDEVGARKNAVDEEIERLSQPGGSEDQRLNALAERFGGVLLSEIYDDVSLEDAPYFSALYGPSRHAIWVPDLSQVTEHLEGLTDCPEDLYLIEGDPQSFDDSVFSVDELEKAVVVKIADRQWRYSRFPEVPLFGRAARESRIESLHAEREVLSERFATLSFDVQKTQRLHQAFSRFIGSHLAVAFESDPEAEIRQLNSRRVELERALSNHENDNQQQRIQFEQAKEGVTALNRILPRLNLLADDSLADRVDEIRERLDEAQEAARFVQQFGNQLAKLEPIVSVLQSDPEQFEQLKEDYAYSQQMQRDARQQAFALTEVVQRRAHFSYSDSAEMLSGNSDLNEKLRERLEQAEAERTRAREALRGHAAQLSQYNQVLASLKSSYDTKKELLNDLQRELQDIGVRADSGAEERARIRRDELHAQLSNNRSRRNQLEKALTFCEAEMDNLTRKLRKLERDYFEMREQVVTAKAGWCAVMRMVKDNGVERRLHRRELAYLSADDLRSMSDKALGALRLAVADNEHLRDVLRMSEDPKRPERKIQFFVAVYQHLRERIRQDIIRTDDPVEAIEQMEIELSRLTEELTSREQKLAISSRSVANIIRKTIQREQNRIRMLNQGLQNVSFGQVNSVRLNVNVRETHAMLLDVLSEQHEQHQDLFNSNRLTFSEALAKLYQRLNPQIDMGQRTPQTIGEELLDYRNYLEMEVEVNRGSDGWLRAESGALSTGEAIGTGMSILVMVVQSWEDESRRLRGKDISPCRLLFLDEAARLDARSIATLFELCERLQMQLIIAAPENISPEKGTTYKLVRKVFQNTEHVHVVGLRGFAPQLPETLPGTDEAPSQAS | 0.386 ± 0.076 | 0.0126 ± 0.0087
5 | mukB V713Q (protein) MIERGKFRSLTLINWNGFFARTFDLDELVTTLSGGNGAGKSTTMAAFVTALIPDLTLLHFRNTTEAGATSGSRDKGLHGKLKAGVCYSMLDTINSRHQRVVVGVRLQQVAGRDRKVDIKPFAIQGLPMSVQPTQLVTETLNERQARVLPLNELKDKLEAMEGVQFKQFNSITDYHSLMFDLGIIARRLRSASDRSKFYRLIEASLYGGISSAITRSLRDYLLPENSGVRKAFQDMEAALRENRMTLEAIRVTQSDRDLFKHLISEATNYVAADYMRHANERRVHLDKALEFRRELHTSRQQLAAEQYKHVDMARELAEHNGAEGDLEADYQAASDHLNLVQTALRQQEKIERYEADLDELQIRLEEQNEVVAEAIERQQENEARAEAAELEVDELKSQLADYQQALDVQQTRAIQYNQAIAALNRAKELCHLPDLTADCAAEWLETFQAKELEATEKMLSLEQKMSMAQTAHSQFEQAYQLVVAINGPLARNEAWDVARELLREGVDQRHLAEQVQPLRMRLSELEQRLREQQEAERLLADFCKRQGKNFDIDELEALHQELEARIASLSDSVSNAREERMALRQEQEQLQSRIQSLMQRAPVWLAAQNSLNQLSEQCGEEFTSSQDVTEYLQQLLEREREAIVERDEVGARKNAVDEEIERLSQPGGSEDQRLNALAERFGGVLLSEIYDDVSLEDAPYFSALYGPSRHAIQVPDLSQVTEHLEGLTDCPEDLYLIEGDPQSFDDSVFSVDELEKAVVVKIADRQWRYSRFPEVPLFGRAARESRIESLHAEREVLSERFATLSFDVQKTQRLHQAFSRFIGSHLAVAFESDPEAEIRQLNSRRVELERALSNHENDNQQQRIQFEQAKEGVTALNRILPRLNLLADDSLADRVDEIRERLDEAQEAARFVQQFGNQLAKLEPIVSVLQSDPEQFEQLKEDYAYSQQMQRDARQQAFALTEVVQRRAHFSYSDSAEMLSGNSDLNEKLRERLEQAEAERTRAREALRGHAAQLSQYNQVLASLKSSYDTKKELLNDLQRELQDIGVRADSGAEERARIRRDELHAQLSNNRSRRNQLEKALTFCEAEMDNLTRKLRKLERDYFEMREQVVTAKAGWCAVMRMVKDNGVERRLHRRELAYLSADDLRSMSDKALGALRLAVADNEHLRDVLRMSEDPKRPERKIQFFVAVYQHLRERIRQDIIRTDDPVEAIEQMEIELSRLTEELTSREQKLAISSRSVANIIRKTIQREQNRIRMLNQGLQNVSFGQVNSVRLNVNVRETHAMLLDVLSEQHEQHQDLFNSNRLTFSEALAKLYQRLNPQIDMGQRTPQTIGEELLDYRNYLEMEVEVNRGSDGWLRAESGALSTGEAIGTGMSILVMVVQSWEDESRRLRGKDISPCRLLFLDEAARLDARSIATLFELCERLQMQLIIAAPENISPEKGTTYKLVRKVFQNTEHVHVVGLRGFAPQLPETLPGTDEAPSQAS | 0.232 ± 0.013 | 0.0057 ± 0.0045

Source: the supplement of paper PMC11876631
